44 sequences from the supplement of paper PMC11417369 can be followed below.

This is one part of the list.

The assay deals with PfHDP1 homeodomain (GST-tagged). Put plainly: gcPBM binding intensity (ln(normalized median fluorescence intensity)); higher = stronger DNA binding. The procedure, abridged: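 GST-fused DNA-binding domains of P. falciparum, expressed in E. coli, were applied at about 25 μg on average for 1 h to an Agilent 4 × 180k array of primer-extended double-stranded 36-bp intergenic genomic probes and negative controls. Binding intensity is the highest Masliner-normalised natural-log median intensity across replicate spots of either probe orientation, measured with Alexa488 anti-GST antibody and a 488 nm scan.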
With “TAAATCCTTTACAACACACACACAAAAAAAAAAAAA [CACACA_site643]”, the “gcPBM binding intensity (ln)” value was 6.53.
Then “AGCATTAATTATTTCACACATATATATATATATATA [CACACA_site4889]”, with 9.57.
Then “TTTTTTTTTTTTTTTTTTTATGTATACATATTTATA [TGCATGCA_negctrl_site234]”, with 6.37; and “TCATTTTAAAAAAATAGTACTTTAAGAAACTTTTAT [XGTACX_site602]”, with 6.48; and “CCAAATTTATTTTGTAGTACTCCGTATAGATCAACA [XGTACX_site7945]”, with 6.27.
Then “TGAGATATAAAAATATGTACTTATGTATAAATATTT [XGTACX_site7746]”, with 6.09; and “ATTATAAAAATATATTGTACACAAAAATGTTTATAT [XGTACX_site5066]”, with 6.11.
Regarding “AAGTTTTTTTTTAACACACACATAATAAAATAAATA [CACACA_site446]”, the “gcPBM binding intensity (ln)” value stood at 6.81.
As for “TATATTTATATCCACTTCGTTTAACGCACAGATATA [CACACA_negctrl_site954]”, the “gcPBM binding intensity (ln)” value came to 6.91.
Then “TTTTAACAAAAAAAAAGAAAAGAAAAGAAAATAATA [XGTACX_negctrl_site530]”, with 6.12; and “TTAACTCTGGAGAAAAGTACATAGTATCTGGTAACA [XGTACX_site4941]”, with 6.16; and “TTGAAAAATGAGCACACACACAAATACATACATATT [CACACA_site3231]”, with 6.86.
Turning to “CAAAAAACAACAGATCGTACAAAATATTATATATAT [XGTACX_site2285]”, the “gcPBM binding intensity (ln)” value stood at 7.23.
As to “TATCCATATTTGTTCACACACACACCGATTTATATA [CACACA_site5888]”, the “gcPBM binding intensity (ln)” value is 7.17.
Then “AGCATTTTAAGTTATACACACATTTTGAATCTATAT [CACACA_site7599]”, with 6.62; and “TGGACAATTGTTTATTGTACTTAAATTTTATGTTCT [XGTACX_site8974]”, with 6.05; and “AAGAAATAAAAAGAATGTACACAATATGTATTATAA [XGTACX_site4733]”, with 6.59.
For “ATAAATAAATAAATAAATAAATATACATATACATAT [CACACA_negctrl_site205]”, the “gcPBM binding intensity (ln)” value is 6.26.
Then “ATGTTACACCGACACACACACATAAAAAAACAAAAA [CACACA_site5750]”, with 6.9; and “AAATTATATATATTACGTACATAGAACTTTACAGAA [XGTACX_site6646]”, with 6.38.
For the sequence “TCTTATTCAAACGTAAAACGAAGAAGAAAAAAAAAA [CACACA_negctrl_site149]”, the “gcPBM binding intensity (ln)” value stood at 6.02.
Then “ATATACTATATTTTAACACACAAAAAAAAAAAATAT [CACACA_site1091]”, with 6.62.
Then “TTTTTTTTGTTCATTGTGCACATTGCTTGCATGGAA [GTGCAC_site9693]”, with 10.8; and “AAAATAATAAATAAATGTACATATATATATATATAT [XGTACX_site3078]”, with 9.32.
For the sequence “ATAAGATTATACAATTGTACGTTGTTCAAGATAAGG [XGTACX_site191]”, the “gcPBM binding intensity (ln)” value is 6.55.
Then “GTGTTTGAAAATAAAGCATGCAAATATATTTGAAAT [TGCATGCA_site386]”, with 7.23; and “AAATATATTATATGTACACACAAAATTAAGGGATAT [CACACA_site1375]”, with 7.36; and “ATATTTTTTAATTTTACACACCATATAAAATAATTC [CACACA_site7339]”, with 6.62.
Then “ATCAATACTTTTTTGGGTACATAAATATATATATAT [XGTACX_site8436]”, with 8.83; and “AACTAATTCATGTTATATTAGATAAAAAAAAAAAAA [TGCATGCA_negctrl_site340]”, with 6.3.
Then “AAAAAAAATTAAATAAATAAATATACACATATATAT [GTGCAC_negctrl_site394]”, with 6.43.
With CATTAAAATTGAGAGATGCACTTTTTAAGACCTTGT, the “gcPBM binding intensity (ln)” value came out at 6.93.
Then “TTTTTTTTTTTTTTTTTTTTACCCCTTTTTCAAAAA [CACACA_negctrl_site1524]”, with 6.16.
Regarding “AAAACATTGTTTATGTGTACATAATTATATTTACAA [XGTACX_site6926]”, the “gcPBM binding intensity (ln)” value came to 6.63.
Then “ATATTATGAATTGTCACACATATATTTAAAAATGTA [CACACA_site4852]”, with 6.34; and “TGCATATTACTTTTTCACATAAAAATGATCCGATTA [GTGCAC_negctrl_site526]”, with 6.49.
Consider “TAAATATGTGTATGTAGTACATAGTGTTTTTTTTTT [XGTACX_site3748]”, for which the “gcPBM binding intensity (ln)” value stood at 6.43.
As to “AAAAAATGACTTAATATGAGCATATATTATGTTGTT [CACACA_negctrl_site1609]”, the “gcPBM binding intensity (ln)” value worked out at 7.63.
Take “AAAATATAAAAATGAAGTACAAAAAAAAAAAAAAAA [XGTACX_site8132]”: the “gcPBM binding intensity (ln)” value was determined as 6.07.
Then “GTTATACACATCAACACACACATACAACGTGGTGTA [CACACA_site6677]”, with 7.04.
Then “TCTAACATATAATATTCACACACATATATATATTAT [CACACA_site8236]”, with 6.78.
Consider “TGGTTTCAATAATTAATAAAATATATTATTGTGAAA [CACACA_negctrl_site442]”, for which the “gcPBM binding intensity (ln)” value came out at 5.93.
Consider “ATAATATATTTATAATGTACAAACCATTTGTATTAA [XGTACX_site4370]”, for which the “gcPBM binding intensity (ln)” value stood at 6.27.
Then “ATTATTATTATATTTTGTACATATGTAACAATATAT [XGTACX_site5780]”, with 6.71.
